# No constants are given. Whether binding was seen depends on the method and setting. In cells and extracts the contact can be indirect. Some binding calls cover weakened binding; strength is not graded here. Sequences can lack the tags named with a protein.
# Sequences of proteins named here, by UniProt entry; tags and fusion partners are left off.
# UniProt Q9Y6K9: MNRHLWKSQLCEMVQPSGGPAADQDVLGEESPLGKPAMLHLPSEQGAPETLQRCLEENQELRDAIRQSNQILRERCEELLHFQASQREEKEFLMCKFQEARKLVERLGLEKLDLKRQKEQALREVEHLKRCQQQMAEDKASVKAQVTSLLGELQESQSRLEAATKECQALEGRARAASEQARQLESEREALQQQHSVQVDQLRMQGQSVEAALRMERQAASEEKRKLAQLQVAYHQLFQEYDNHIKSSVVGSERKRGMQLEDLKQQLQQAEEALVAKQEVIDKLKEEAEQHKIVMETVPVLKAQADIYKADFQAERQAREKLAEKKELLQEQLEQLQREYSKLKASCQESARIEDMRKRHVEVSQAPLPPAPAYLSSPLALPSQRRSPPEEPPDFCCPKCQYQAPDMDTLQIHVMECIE
# UniProt Q04206: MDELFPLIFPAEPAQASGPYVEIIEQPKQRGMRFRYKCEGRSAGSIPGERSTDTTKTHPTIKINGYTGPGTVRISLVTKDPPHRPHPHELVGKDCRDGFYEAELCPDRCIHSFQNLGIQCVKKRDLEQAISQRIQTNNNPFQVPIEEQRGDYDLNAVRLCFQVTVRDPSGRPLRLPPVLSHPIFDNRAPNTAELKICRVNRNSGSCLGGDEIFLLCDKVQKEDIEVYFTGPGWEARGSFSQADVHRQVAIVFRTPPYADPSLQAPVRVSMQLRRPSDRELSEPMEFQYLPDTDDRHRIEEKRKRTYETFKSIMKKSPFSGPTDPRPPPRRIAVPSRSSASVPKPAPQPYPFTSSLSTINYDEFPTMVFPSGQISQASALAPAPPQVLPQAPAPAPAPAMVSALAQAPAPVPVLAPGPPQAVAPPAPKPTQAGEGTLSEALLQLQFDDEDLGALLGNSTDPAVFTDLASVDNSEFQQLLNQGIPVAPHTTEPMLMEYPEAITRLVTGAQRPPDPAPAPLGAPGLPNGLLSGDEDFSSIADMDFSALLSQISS
# UniProt O00463: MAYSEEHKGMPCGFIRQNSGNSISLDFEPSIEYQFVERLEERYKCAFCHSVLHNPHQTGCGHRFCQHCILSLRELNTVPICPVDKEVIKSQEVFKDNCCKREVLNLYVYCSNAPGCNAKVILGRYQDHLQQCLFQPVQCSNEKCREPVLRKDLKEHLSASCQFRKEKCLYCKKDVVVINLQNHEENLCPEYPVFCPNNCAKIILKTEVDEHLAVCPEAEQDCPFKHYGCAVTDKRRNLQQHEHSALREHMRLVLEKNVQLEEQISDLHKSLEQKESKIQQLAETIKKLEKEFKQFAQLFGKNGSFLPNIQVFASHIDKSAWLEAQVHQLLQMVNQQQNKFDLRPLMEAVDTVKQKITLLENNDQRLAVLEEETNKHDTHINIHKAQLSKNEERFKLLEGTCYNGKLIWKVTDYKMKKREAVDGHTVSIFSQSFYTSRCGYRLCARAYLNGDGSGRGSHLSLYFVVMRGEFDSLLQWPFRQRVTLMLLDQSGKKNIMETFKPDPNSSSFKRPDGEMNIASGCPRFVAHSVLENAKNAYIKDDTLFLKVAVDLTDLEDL
# T1: Flag-tagged IKKα (UniProt O15111)
# T1 sequence: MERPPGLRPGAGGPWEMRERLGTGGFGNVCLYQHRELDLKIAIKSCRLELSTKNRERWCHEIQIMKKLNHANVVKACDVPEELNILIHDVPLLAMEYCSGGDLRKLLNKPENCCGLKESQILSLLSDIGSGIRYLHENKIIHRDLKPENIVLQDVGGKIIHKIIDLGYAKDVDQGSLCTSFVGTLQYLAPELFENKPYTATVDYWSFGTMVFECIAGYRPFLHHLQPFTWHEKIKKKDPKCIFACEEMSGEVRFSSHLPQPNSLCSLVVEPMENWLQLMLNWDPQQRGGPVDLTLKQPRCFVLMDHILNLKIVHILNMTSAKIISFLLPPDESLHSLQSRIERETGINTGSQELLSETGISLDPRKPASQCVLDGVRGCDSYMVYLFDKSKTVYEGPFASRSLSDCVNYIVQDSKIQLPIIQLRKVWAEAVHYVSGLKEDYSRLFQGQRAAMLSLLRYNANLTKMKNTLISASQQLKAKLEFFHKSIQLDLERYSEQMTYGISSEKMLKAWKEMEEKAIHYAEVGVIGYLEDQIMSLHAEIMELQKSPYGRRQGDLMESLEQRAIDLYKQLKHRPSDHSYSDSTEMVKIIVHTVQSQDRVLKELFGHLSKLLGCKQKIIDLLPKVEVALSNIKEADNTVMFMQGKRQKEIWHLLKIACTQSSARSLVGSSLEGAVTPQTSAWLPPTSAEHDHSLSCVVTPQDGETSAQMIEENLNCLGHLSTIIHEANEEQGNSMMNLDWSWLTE
# T2: Flag-tagged IKKβ (UniProt O14920)
# T2 sequence: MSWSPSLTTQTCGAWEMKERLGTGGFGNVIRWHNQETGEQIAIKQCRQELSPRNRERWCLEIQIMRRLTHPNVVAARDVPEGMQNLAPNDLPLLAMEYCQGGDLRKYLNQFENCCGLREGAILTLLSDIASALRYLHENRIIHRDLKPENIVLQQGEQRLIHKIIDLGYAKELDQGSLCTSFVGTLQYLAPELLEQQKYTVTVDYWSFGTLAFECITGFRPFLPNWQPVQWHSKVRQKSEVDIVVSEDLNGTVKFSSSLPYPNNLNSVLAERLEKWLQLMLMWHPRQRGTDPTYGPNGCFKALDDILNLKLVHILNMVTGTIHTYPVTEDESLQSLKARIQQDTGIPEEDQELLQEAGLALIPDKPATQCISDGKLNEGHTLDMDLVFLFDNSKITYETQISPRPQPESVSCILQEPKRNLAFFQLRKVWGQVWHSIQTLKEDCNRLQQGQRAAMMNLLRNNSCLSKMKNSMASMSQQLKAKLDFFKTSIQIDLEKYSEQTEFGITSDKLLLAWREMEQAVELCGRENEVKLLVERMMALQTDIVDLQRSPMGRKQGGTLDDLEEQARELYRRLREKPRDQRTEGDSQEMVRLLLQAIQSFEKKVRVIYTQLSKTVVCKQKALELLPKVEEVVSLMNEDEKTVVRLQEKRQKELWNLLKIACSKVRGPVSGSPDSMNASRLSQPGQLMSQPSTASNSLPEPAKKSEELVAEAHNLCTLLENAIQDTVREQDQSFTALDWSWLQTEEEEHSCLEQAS
# T3: Flag-tagged TAK1 (UniProt O43318)
# T3 sequence: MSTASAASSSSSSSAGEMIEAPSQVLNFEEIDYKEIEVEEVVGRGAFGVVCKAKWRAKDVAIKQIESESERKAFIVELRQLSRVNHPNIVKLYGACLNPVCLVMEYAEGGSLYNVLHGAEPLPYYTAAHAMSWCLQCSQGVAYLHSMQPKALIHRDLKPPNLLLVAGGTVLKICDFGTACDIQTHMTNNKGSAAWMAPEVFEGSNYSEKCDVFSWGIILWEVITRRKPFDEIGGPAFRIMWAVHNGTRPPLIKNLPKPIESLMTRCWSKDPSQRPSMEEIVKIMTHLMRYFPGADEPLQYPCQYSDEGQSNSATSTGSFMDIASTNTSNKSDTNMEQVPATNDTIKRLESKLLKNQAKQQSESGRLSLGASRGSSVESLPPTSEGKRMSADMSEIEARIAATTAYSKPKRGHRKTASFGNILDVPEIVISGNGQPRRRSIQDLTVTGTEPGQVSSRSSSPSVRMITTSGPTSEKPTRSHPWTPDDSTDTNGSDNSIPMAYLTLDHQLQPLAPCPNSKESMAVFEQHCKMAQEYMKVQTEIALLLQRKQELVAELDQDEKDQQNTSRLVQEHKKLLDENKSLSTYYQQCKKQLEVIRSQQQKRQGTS
# T4: Flag-tagged TRAF2 (UniProt Q12933)
# T4 sequence: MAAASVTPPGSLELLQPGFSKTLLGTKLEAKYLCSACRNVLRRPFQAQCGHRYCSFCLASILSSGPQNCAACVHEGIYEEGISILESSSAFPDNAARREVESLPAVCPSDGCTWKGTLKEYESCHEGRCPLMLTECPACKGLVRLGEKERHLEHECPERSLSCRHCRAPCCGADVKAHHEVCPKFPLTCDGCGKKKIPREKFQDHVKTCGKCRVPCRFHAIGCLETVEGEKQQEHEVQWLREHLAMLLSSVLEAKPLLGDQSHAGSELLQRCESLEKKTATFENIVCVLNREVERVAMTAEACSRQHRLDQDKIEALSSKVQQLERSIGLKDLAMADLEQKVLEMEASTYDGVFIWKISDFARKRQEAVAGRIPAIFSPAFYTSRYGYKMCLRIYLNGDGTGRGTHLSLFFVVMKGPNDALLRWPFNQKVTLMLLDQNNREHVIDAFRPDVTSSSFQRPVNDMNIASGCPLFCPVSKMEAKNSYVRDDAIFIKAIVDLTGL
# B1: Myc-tagged ZDHHC11 (protein, UniProt Q9H8X9 1-412)
# chain: MDTRSGSQCSVTPEAILNNEKLVLPPRISRVNGWSLPLHYFQVVTWAVFVGLSSATFGIFIPFLPHAWKYIAYVVTGGIFSFHLVVHLIASCIDPADSNVRLMKNYSQPMPLFDRSKHAHVIQNQFCHLCKVTVNKKTKHCISCNKCVSGFDHHCKWINNCVGSRNYWFFFSTVASATAGMLCLIAILLYVLVQYLVNPGVLRTDPRYEDVKNMNTWLLFLPLFPVQVQTLIVVIIGMLVLLLDFLGLVHLGQLLIFHIYLKAKKMTTFEYLINNRKEESSKHQAVRKDPYVQMDKGVLQQGAGALGSSAQGVKAKSSLLIHKHLCHFCTSVNQDGDSTAREGDEDPCPSALGAKARNSRLICRRLCQFSTRVHPDGGSMAQEADDAPSISTLGLQQETTEPMKTDSAESED
# Columns and labels:
# Assay in all cases: co-IP; HEK293T cells cotransfected with the expression plasmids, 24 h; lysates incubated at 4°C for 4 h with anti-Flag agarose beads, washed 3-4 times, immunoblot (Figure 4A,B,D,E)
# Flag-tagged IKKα = biological target: T1, Flag-tagged IKKα
# Flag-tagged IKKβ = biological target: T2, Flag-tagged IKKβ
# Flag-tagged NEMO = Flag-tagged NEMO (UniProt Q9Y6K9)
# Flag-tagged P65 = Flag-tagged P65 (UniProt Q04206)
# Flag-tagged TAK1 = biological target: T3, Flag-tagged TAK1
# Flag-tagged TRAF2 = biological target: T4, Flag-tagged TRAF2
# Flag-tagged TRAF5 = Flag-tagged TRAF5 (UniProt O00463)
binder,measurement,setting,value
B1,binding,Flag-tagged IKKα,binds weakly
same,binding,Flag-tagged IKKβ,no binding
same,binding,Flag-tagged NEMO,no binding
same,binding,Flag-tagged P65,no binding
same,binding,Flag-tagged TAK1,binds weakly
same,binding,Flag-tagged TRAF2,no binding
same,binding,Flag-tagged TRAF5,no binding
